# In all, about 33,000 sequences were measured (“E-score (-0.5 to 0.5)”: median about -0.04, highest 2% from about 0.36 on). Some of the results follow.
# Biological target: T1, Hmlalpha2 (UniProt P0CY09)
# T1 sequence: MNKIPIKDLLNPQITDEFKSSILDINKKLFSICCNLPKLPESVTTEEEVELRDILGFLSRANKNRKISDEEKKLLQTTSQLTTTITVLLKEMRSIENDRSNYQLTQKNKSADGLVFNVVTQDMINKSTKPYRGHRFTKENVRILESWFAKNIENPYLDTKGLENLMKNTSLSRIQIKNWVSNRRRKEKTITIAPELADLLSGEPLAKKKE
# Assay: PBM E-score (8-mer binding enrichment) (E-score (-0.5 to 0.5)); higher = stronger / more preferred TF binding; most listed sequences are background and not binding sites
# Conditions: protein concentration: 200 nM; construct: GST-full length
# How it was run: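 Each ungapped eight-base word and its reverse complement, pooled, received an E-score from the Universal PBM Analysis Suite. Underlying scans, normalised with masliner, recorded fluorescent anti-GST bound to GST-tagged yeast transcription factors. These were applied at about 100-200 nM to universal all-10-mer Agilent arrays double-stranded by primer extension.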
row,Sequence,PBM E-score
1,GTCTATCA,0.0262
2,ACCTCGAA,-0.018
3,ACAGGAAA,0.0963
4,ACATGATA,0.435
5,ATTAGCCA,-0.103
6,ACATTACC,0.162
7,ACGTAGCC,0.00953
8,ATTTAAGA,0.0498
9,AAGGTGTG,-0.0151
10,GGGCTTAC,-0.0904
11,CCCCTCAA,-0.16
12,ACAGGGCT,0.0949
13,GTACCCCA,-0.15
14,CTACGTCC,0.0361
15,TCCCAAGA,-0.123
16,GTAATGCA,0.257
17,GTGATGAA,-0.0518
18,GACCGGCA,-0.203
19,ACCTACAC,0.278
20,GTAACGCA,0.246
21,CCAGAGTC,-0.0848
22,ATTCAGTA,0.137
23,ACACGGGT,0.391
24,CCAGCTAA,-0.128
25,ATGTCTTA,0.173

row,Sequence,PBM E-score
1,CGAACGGA,-0.0141
2,AATAATGT,0.247
3,CACATGAC,0.267
4,AAAAGCTG,-0.0129
5,ACAAACAT,0.305
6,ATAGTGAA,0.08
7,CCCGAGCA,-0.262
8,CGGACAAC,0.067
9,GAGTACAA,0.227
10,CATACCCG,-0.117
11,GACATGGC,0.224
12,GGAATCAA,-0.111
13,ACACGCCC,0.371
14,CCAAGTGC,-0.171
15,GACCCGGA,-0.173
16,AGAACACG,0.331
17,AACGCGTA,0.359
18,TGCTGGAA,0.123
19,GGCCGAGA,-0.13
20,ACGCCAAC,0.0759
21,ACCTTGCC,-0.128
22,GTTACTGA,0.171
23,CAACACAG,0.307
24,GGCGTTGA,0.00653
25,CGGTTGAG,0.00951

row,Sequence,PBM E-score
1,GAGTCGCC,-0.317
2,GGTACTGA,-0.195
3,ATGTGCGG,0.0226
4,ACTATTCC,-0.0557
5,CGATTTAG,0.0544
6,GGCACTAC,-0.121
7,AAGTCGGT,-0.242
8,GTTCGTTA,0.176
9,GCGCTAAA,-0.0585
10,CCCTTGGC,-0.35
11,AAATAGAA,-0.0961
12,GTCTGGGA,-0.0701
13,CGAGTAAA,0.285
14,GGGTAACC,-0.226
15,AAATATTC,0.0676
16,AGCGGCAC,-0.201
17,CTAGGCTA,-0.262
18,AATCGTAT,0.141
19,CATGCAGA,0.191
20,AGGTGTAG,0.0925
21,CGCGTTTC,0.0651
22,GATATTAC,0.268
23,AGCGGTGC,-0.131
24,CCAGCCCA,-0.228
25,CCTGAGGC,-0.223

row,Sequence,PBM E-score
1,CAAACGAC,0.0273
2,AAAGCGTG,0.0952
3,AGGGCGAA,-0.28
4,GATCGCCA,-0.172
5,TGTCGGAA,-0.00095
6,GACCGGAA,-0.179
7,CATCCATG,0.154
8,GGGAAACA,0.0668
9,CCGAACGA,-0.153
10,AGCCCGCG,-0.25
11,ATTTTTTA,0.231
12,AATGTATG,0.235
13,ACCCGTCT,-0.0615
14,TACTAAAA,0.0793
15,TCCTCACA,0.0414
16,ACGGAGAG,-0.0706
17,GAGAGTGA,-0.212
18,AAATGTCA,0.148
19,CGGAATAC,0.292
20,ACACTCTA,0.199
21,AGGAAGAG,-0.214
22,CATCCTAG,-0.208
23,AGGTCTCA,-0.0741
24,ATCGTACA,0.21
25,ACTAGTAG,0.108

row,Sequence,PBM E-score
1,AGAACGAT,0.025
2,CTTCGACA,0.213
3,ATGCGCAC,-0.0855
4,GACACCTC,-0.112
5,CACTCTTA,0.071
6,ACTCCAGA,-0.106
7,GCGTGTCA,0.382
8,GCCCGGGC,-0.059
9,CTTGAAAC,-0.111
10,AACACCCG,0.112
11,AATTTTTA,0.162
12,AATTAGGA,-0.0899
13,CCCGCAAG,-0.358
14,ACACCGCA,-0.1
15,TGAGTGCA,-0.0859
16,AAGAAGGA,-0.0215
17,AAGGATAT,0.102
18,GAGTCAAC,0.0855
19,ATTAAGGG,-0.0683
20,CGTTTTTC,-0.0177
21,CCGCAGAC,-0.174
22,GACACCGC,-0.118
23,ATAAGTAC,0.125
24,ACAGAGGC,-0.088
25,CCAAGGCG,-0.124

row,Sequence,PBM E-score
1,AAGATGAC,0.0944
2,CAATCACC,-0.045
3,GGAAGTGA,0.0916
4,AGATTGAG,0.0255
5,CAAAACGC,0.122
6,CGCGCGCC,-0.0121
7,ACTAAATC,-0.0181
8,AAAGATGA,0.187
9,CAGTATAG,-0.0484
10,CACACGGC,0.116
11,GCAATTGA,0.138
12,AATGAACT,0.0494
13,TCATCCAA,-0.0472
14,GCGGGAGA,-0.354
15,CTGTTAGC,-0.243
16,CGCGGACA,0.131
17,CGTGTTTA,0.436
18,GCCAAGGA,-0.128
19,AACGGGGA,-0.064
20,CGCTTTAC,0.321
21,GCCTGCGA,-0.197
22,AATTTAAA,0.083
23,GCTTGGAA,-0.157
24,AGGTAATG,0.226
25,CCTGGCCG,-0.146

row,Sequence,PBM E-score
1,ACACTTCG,0.071
2,CACAGAGG,0.0512
3,GGACCTAC,-0.0877
4,CCTATGCA,0.0135
5,AAATTTCT,0.0893
6,ACGACCAA,0.0834
7,CTCGTGAC,-0.0519
8,CAGAAAAA,0.0571
9,CACCTACC,-0.139
10,ACACCGCT,0.147
11,CGGGTTTA,-0.0628
12,AGCGGGGA,-0.24
13,GGGCTAAA,-0.168
14,ATCTCGAG,-0.137
15,CATTCTAG,0.0286
16,GCTAGGAA,-0.161
17,AGTGCTCG,-0.187
18,CCTACGCG,0.107
19,CCAACAGA,-0.17
20,AGAGGCAA,-0.122
21,GGAGGCCA,-0.368
22,GAGCAATC,0.00584
23,GCCCCATA,-0.309
24,ACCTTCTA,-0.00972
25,ACACGTAC,0.347

row,Sequence,PBM E-score
1,AGAGGCGA,-0.226
2,CAACGGTC,-0.0538
3,AGCGATAA,-0.187
4,GGGTGGTA,-0.159
5,CGTTGAAC,0.111
6,ACAGGCCT,0.0133
7,CGTAACAC,0.325
8,CTTAGAGC,-0.105
9,AGCTTCCA,-0.238
10,ACAGAGGT,0.133
11,CCAACTTC,-0.151
12,GACCAGTA,-0.11
13,ACCCCCAG,-0.321
14,GTGAATTA,0.284
15,GCTTCCGA,0.0444
16,CTCTGTAA,0.195
17,ATATGGTG,0.0211
18,ATCTGCCG,-0.057
19,CATTCGGA,0.108
20,CCATCCAA,0.0276
21,CGGGGTAA,-0.0141
22,ACAATTTC,-0.0632
23,ACCTGGTC,-0.0932
24,CGTGCTAC,-0.058
25,CGTTGTTC,0.0877

row,Sequence,PBM E-score
1,CAAGTAAA,0.316
2,CTGGTAGA,-0.0921
3,CCACACGC,0.142
4,GACCACGC,-0.0445
5,TCTCGCCA,-0.219
6,GACAGCTA,-0.0274
7,ATGAGTCG,-0.0768
8,AAACCAAG,0.157
9,CCCGCGGA,-0.241
10,ATTCTGGG,-0.173
11,CGCATAAG,-0.0319
12,AAGATACG,0.116
13,AGTTGCTG,-0.0335
14,CATACTCC,0.0887
15,GCTGAAAC,0.12
16,ACGGGGCA,-0.218
17,AGACTCGC,-0.19
18,AATGCTGG,0.0702
19,CATATTAC,0.303
